Measured values taken from the supplement of paper PMC11876631.
± gives the standard deviation of the averaged measurements. Laboratory Escherichia coli strains with one amino-acid change in an essential protein, pooled on minimal glucose agar with carbenicillin or gentamicin at twice the control MIC (plus kanamycin and chloramphenicol for the plasmids), 48 h. Fold change of barcode share against drug-free plates; higher = less susceptible. Active = above 20 in both replicates (the paper's putatively resistant). '<' = one read or none on drug, '>' = one read or none on a drug-free plate. Shares are relative, so most strains fall below 1 when a few take over. Listed are strains with at least 15 reads on both drug-free plates, and hits; most hits rest on fewer reference reads. Replicate rank correlation about 0.5. Edits are read from barcodes.

B1: pgsA; numbered along this chain (parent)
chain: MQFNIPTLLTLFRVILIPFFVLVFYLPVTWSPFAAALIFCVAAVTDWFDGFLARRWNQSTRFGAFLDPVADKVLVAIAMVLVTEHYHSWWVTLPAATMIAREIIISALREWMAELGKRSSVAVSWIGKVKTTAQMVALAWLLWRPNIWVEYAGIALFFVAAVLTLWSMLQYLSAARADLLDQ
B2: metC; numbered along this chain (parent)
chain: MADKKLDTQLVNAGRSKKYTLGAVNSVIQRASSLVFDSVEAKKHATRNRANGELFYGRRGTLTHFSLQQAMCELEGGAGCVLFPCGAAAVANSILAFIEQGDHVLMTNTAYEPSQDFCSKILSKLGVTTSWFDPLIGADIVKHLQPNTKIVFLESPGSITMEVHDVPAIVAAVRSVVPDAIIMIDNTWAAGVLFKALDFGIDVSIQAATKYLVGHSDAMIGTAVCNARCWEQLRENAYLMGQMVDADTAYITSRGLRTLGVRLRQHHESSLKVAEWLAEHPQVARVNHPALPGSKGHEFWKRDFTGSSGLFSFVLKKKLNNEELANYLDNFSLFSMAYSWGGYESLILANQPEHIAAIRPQGEIDFSGTLIRLHIGLEDVDDLIADLDAGFARIV
B3: proC; numbered along this chain (parent)
chain: MEKKIGFIGCGNMGKAILGGLIASGQVLPGQIWVYTPSPDKVAALHDQFGINAAESAQEVAQIADIIFAAVKPGIMIKVLSEITSSLNKDSLVVSIAAGVTLDQLARALGHDRKIIRAMPNTPALVNAGMTSVTPNALVTPEDTADVLNIFRCFGEAEVIAEPMIHPVVGVSGSSPAYVFMFIEAMADAAVLGGMPRAQAYKFAAQAVMGSAKMVLETGEHPGALKDMVCSPGGTTIEAVRVLEEKGFRAAVIEAMTKCMEKSEKLSKS
B4: pgk; numbered along this chain (parent)
chain: MSVIKMTDLDLAGKRVFIRADLNVPVKDGKVTSDARIRASLPTIELALKQGAKVMVTSHLGRPTEGEYNEEFSLLPVVNYLKDKLSNPVRLVKDYLDGVDVAEGELVVLENVRFNKGEKKDDETLSKKYAALCDVFVMDAFGTAHRAQASTHGIGKFADVACAGPLLAAELDALGKALKEPARPMVAIVGGSKVSTKLTVLDSLSKIADQLIVGGGIANTFIAAQGHDVGKSLYEADLVDEAKRLLTTCNIPVPSDVRVATEFSETAPATLKSVNDVKADEQILDIGDASAQELAEILKNAKTILWNGPVGVFEFPNFRKGTEIVANAIADSEAFSIAGGGDTLAAIDLFGIADKISYISTGGGAFLEFVEGKVLPAVAMLEERAKK

Variants of: B1
Assay: barcode share on antibiotic plates over drug-free plates; higher = less susceptible
Conditions: with Escherichia coli (laboratory strain); antibiotic: carbenicillin; 2× MIC (3.1 µg/mL)
Method: (§1)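 A pool of E. coli strains, each edited to carry one amino-acid change in an essential protein, was grown for 48 h on minimal glucose agar with or without antibiotic; strain barcodes were sequenced; mean of two replicates.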

| Variant | fold change of barcode share |
| --- | --- |
| I126P | 0.279 ± 0.11 |
| I126Q | 0.259 ± 0.068 |
| I126W | 0.406 ± 0.036 |

Same assay, conditions: with Escherichia coli (laboratory strain); antibiotic: gentamicin; 2× MIC (MIC 0.45 µg/mL)

| Variant | fold change of barcode share |
| --- | --- |
| I126P | < 0.00361 |
| I126Q | 0.00664 ± 0.0041 |
| I126W | 0.0133 ± 0.0025 |
| F12A | < 0.0114 |
| F12Q | 0.39 ± 0.53 |
| I38D | > 355 [active] |

Variants of: B2
Assay: as above
Conditions: with Escherichia coli (laboratory strain); antibiotic: carbenicillin; 2× MIC (3.1 µg/mL)
Method: as §1

| Variant | fold change of barcode share |
| --- | --- |
| L105D | 0.326 ± 0.16 |
| L105W | 0.966 ± 0.72 |
| M106A | 0.381 ± 0.042 |
| M106Q | 0.395 ± 0.033 |
| M106W | 0.579 ± 0.26 |
| V173A | 0.38 ± 0.22 |
| V173D | > 39.1 [active] |
| V173Q | 0.978 ± 0.24 |
| V173W | 43.9 [active] |
| I182A | 0.248 ± 0.097 |
| I182P | > 26 [active] |
| I182Q | 0.651 ± 0.49 |
| I182W | 0.549 ± 0.19 |
| M183A | 0.329 ± 0.023 |
| M183D | > 34.8 [active] |
| M183P | 1.01 ± 0.23 |
| M183Q | 0.663 ± 0.22 |
| F311A | 0.923 ± 0.63 |
| F311Q | 0.21 ± 0.12 |
| F311W | 0.291 ± 0.1 |
| I371Q | 0.3 ± 0.1 |
| I371W | 0.208 ± 0.041 |

Same assay, conditions: with Escherichia coli (laboratory strain); antibiotic: gentamicin; 2× MIC (MIC 0.45 µg/mL)

| Variant | fold change of barcode share |
| --- | --- |
| L105W | < 0.00906 |
| M106A | 0.0357 ± 0.042 |
| M106Q | < 0.00649 |
| M106W | < 0.0176 |
| V173A | 0.00325 ± 0.0014 |
| V173Q | 0.0403 ± 0.013 |
| V173W | 0.0641 ± 0.051 |
| I182A | 0.00903 ± 0.00017 |
| I182Q | 0.00527 ± 0.00035 |
| I182W | 0.0155 ± 0.013 |
| M183A | 0.152 ± 0.024 |
| M183P | 0.0155 ± 0.011 |
| M183Q | 0.00331 ± 0.00021 |
| F311A | 0.0349 ± 0.034 |
| F311Q | < 0.00822 |
| F311W | < 0.00779 |
| I371Q | < 0.0117 |
| I371W | < 0.013 |
| L105A | < 0.0219 |
| L105Q | 0.0193 ± 0.015 |
| I371A | < 0.0125 |

Variants of: B3
Assay: as above
Conditions: with Escherichia coli (laboratory strain); antibiotic: carbenicillin; 2× MIC (3.1 µg/mL)
Method: as §1

| Variant | fold change of barcode share |
| --- | --- |
| L18A | 0.364 ± 0.041 |
| L18P | 0.495 ± 0.16 |
| L18Q | 0.268 ± 0.025 |
| L18W | 0.455 ± 0.24 |
| V34Q | 0.257 ± 0.045 |
| V34W | 0.398 ± 0.052 |
| V93P | 0.276 ± 0.11 |
| V94A | 0.353 ± 0.12 |
| V94P | 0.113 ± 0.11 |
| V94Q | 0.348 ± 0.2 |
| V94W | 0.164 ± 0.049 |
| F154A | 0.271 ± 0.12 |
| F154D | 0.348 ± 0.13 |
| F154P | 0.28 ± 0.11 |
| F154Q | 0.261 ± 0.084 |
| F154W | 0.255 ± 0.14 |

Same assay, conditions: with Escherichia coli (laboratory strain); antibiotic: gentamicin; 2× MIC (MIC 0.45 µg/mL)

| Variant | fold change of barcode share |
| --- | --- |
| L18A | 0.0084 ± 0.00058 |
| L18P | 0.0139 ± 0.0027 |
| L18Q | 0.0385 ± 0.048 |
| L18W | 0.275 ± 0.38 |
| V34Q | 0.0101 ± 0.01 |
| V34W | 0.0141 ± 0.015 |
| V93P | < 0.0145 |
| V94A | 0.0476 ± 0.042 |
| V94Q | < 0.0172 |
| F154A | 0.0063 ± 0.00087 |
| F154D | 0.00417 ± 0.001 |
| F154P | 0.0134 ± 0.014 |
| F154Q | 0.0128 ± 0.009 |
| F154W | 0.00787 ± 0.0057 |
| F68A | 0.0441 ± 0.043 |
| V93W | < 0.0161 |
| F151A | < 0.0121 |
| F151W | 0.0201 ± 0.0025 |

Variants of: B4
Assay: as above
Conditions: with Escherichia coli (laboratory strain); antibiotic: carbenicillin; 2× MIC (3.1 µg/mL)
Method: as §1

| Variant | fold change of barcode share |
| --- | --- |
| M138A | 0.431 ± 0.018 |
| M138D | 0.244 ± 0.058 |
| M138P | 1.51 ± 0.17 |
| I188A | 0.366 ± 0.059 |
| I188P | 1.41 ± 0.34 |
| I188Q | 0.527 ± 0.3 |
| I188W | 0.383 ± 0.033 |
| V189W | 0.356 ± 0.25 |
| L201A | 0.588 ± 0.1 |
| L201Q | 0.452 ± 0.088 |
| L204A | 0.237 ± 0.0068 |
| L204Q | 0.287 ± 0.08 |

Same assay, conditions: with Escherichia coli (laboratory strain); antibiotic: gentamicin; 2× MIC (MIC 0.45 µg/mL)

| Variant | fold change of barcode share |
| --- | --- |
| M138A | 0.00452 ± 0.004 |
| M138D | 0.0115 ± 0.002 |
| V189W | 0.384 ± 0.44 |
| L201A | 0.0158 ± 0.0068 |
| L201Q | < 0.00914 |
| L204A | 0.0306 ± 0.026 |
| L204Q | < 0.00504 |
